Out of some 220,000 compounds screened, about 5,700 (2.6%) were called active. Inconclusive results, whose numbers are uncertain, are shown with a selection of clear calls. The call rests on the fitted dose curve; in most records, active means well fitted inhibition curve with a large enough effect; inconclusive means small, poorly fitted or top-dose-only effect; inactive means no such curve, though single readings can be large or run the other way. Potencies beside an inconclusive call are fits to weak or partial responses and may not hold up.
biological target: Lysine-specific demethylase 5B (Homo sapiens) (UniProt Q9UGL1); experiment: Primary screen for KDM5B Histone Demethylases FDH-coupled qHTS; conditions: FDH-coupled NADH fluorescence (FDH is formaldehyde dehydrogenase); activity change, negative = inhibition: at 57.7 µM (top of the series) unless noted; further: nearly all actives have a fitted effect of over 70% in size; on activity change, negative = inhibition: 0% is about no effect
How it was run: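 Measured: NADH fluorescence change, 30 min, RT. System: KDM5BΔAP 200 nM final, H3K4me3 peptide, α-KG, Fe(II), ascorbate, NAD⁺ plus FDH, pH 7.5 HEPES. Compounds: titrated, 10 min pre-incubation with enzyme.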
Potency means the concentration at half of the fitted maximal effect; tags describe the fitted curve by direction and shape.

Sequence of UniProt Q9UGL1 (Q9UGL1 whole entry, looked up): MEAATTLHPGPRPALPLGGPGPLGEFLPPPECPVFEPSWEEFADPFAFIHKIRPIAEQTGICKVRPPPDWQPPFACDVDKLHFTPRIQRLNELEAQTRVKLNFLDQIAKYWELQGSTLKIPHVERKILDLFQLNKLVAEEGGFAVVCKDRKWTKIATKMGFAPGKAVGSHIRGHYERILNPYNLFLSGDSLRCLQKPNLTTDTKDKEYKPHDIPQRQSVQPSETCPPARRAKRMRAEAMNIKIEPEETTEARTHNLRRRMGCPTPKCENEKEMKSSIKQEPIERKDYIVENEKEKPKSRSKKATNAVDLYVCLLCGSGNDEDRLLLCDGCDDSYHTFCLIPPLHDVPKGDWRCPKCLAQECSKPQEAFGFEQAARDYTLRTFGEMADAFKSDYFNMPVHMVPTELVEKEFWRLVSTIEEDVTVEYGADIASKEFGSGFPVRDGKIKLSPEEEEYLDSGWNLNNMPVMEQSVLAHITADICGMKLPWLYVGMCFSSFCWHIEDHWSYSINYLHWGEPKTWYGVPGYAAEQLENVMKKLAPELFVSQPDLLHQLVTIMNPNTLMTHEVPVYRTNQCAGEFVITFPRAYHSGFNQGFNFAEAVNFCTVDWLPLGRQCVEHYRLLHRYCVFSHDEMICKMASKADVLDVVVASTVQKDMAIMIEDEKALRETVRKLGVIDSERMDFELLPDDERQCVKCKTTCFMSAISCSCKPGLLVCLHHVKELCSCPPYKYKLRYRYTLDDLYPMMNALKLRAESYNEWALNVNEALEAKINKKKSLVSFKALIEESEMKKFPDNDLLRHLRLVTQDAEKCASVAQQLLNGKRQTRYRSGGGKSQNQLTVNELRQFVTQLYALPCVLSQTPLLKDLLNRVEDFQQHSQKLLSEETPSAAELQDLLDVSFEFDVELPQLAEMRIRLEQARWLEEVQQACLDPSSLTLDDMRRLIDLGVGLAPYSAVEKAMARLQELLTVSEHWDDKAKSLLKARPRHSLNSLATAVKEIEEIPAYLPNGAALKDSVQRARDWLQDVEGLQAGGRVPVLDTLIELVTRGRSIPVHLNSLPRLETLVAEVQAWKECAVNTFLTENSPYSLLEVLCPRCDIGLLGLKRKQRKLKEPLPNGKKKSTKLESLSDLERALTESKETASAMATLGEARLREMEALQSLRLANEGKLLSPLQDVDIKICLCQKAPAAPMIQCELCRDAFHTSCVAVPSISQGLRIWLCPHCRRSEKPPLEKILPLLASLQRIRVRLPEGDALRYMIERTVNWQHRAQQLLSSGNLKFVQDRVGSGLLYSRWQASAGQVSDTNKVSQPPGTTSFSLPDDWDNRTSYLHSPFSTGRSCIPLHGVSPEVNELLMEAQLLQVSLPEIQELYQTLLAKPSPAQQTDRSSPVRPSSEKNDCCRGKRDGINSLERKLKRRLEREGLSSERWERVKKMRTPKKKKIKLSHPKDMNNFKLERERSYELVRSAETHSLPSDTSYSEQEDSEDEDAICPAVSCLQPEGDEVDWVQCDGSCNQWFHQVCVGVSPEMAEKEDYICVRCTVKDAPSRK

| Compound | Potency | activity change, negative = inhibition |
| --- | --- | --- |
| CCOC(=O)Cn1c(=O)n(CC2CCCO2)c2nc(-c3ccc(C(C)C)cc3)nc(C(N)=O)c21 (stereo unspecified) | inconclusive: 7.94 µM [inhibitor, partial curve, poor fit] |  |
| Cn1ncc2c(C(=O)NCc3cccnc3)cc(-c3ccc([S+](C)(=O)[O-])cc3)nc21 | active: 79.4 µM |  |
| N/C(=N/O)c1cccc(CN2CCOCC2)c1 | inactive |  |
| COc1cccc(-c2cn3c(n2)N(C(=O)c2cnccn2)CCC3)c1 | inconclusive: 15.8 µM [inhibitor, partial curve] |  |
| CC(=O)c1c(C)n([O-])c2ccc(C)cc2[n+]1=O | inconclusive: 17.8 µM [inhibitor, single point] |  |
| O=C(NCc1ccccc1)C1CN(S(=O)(=O)c2cccnc2)CC12CCCCC2 (stereo unspecified) | inactive |  |
| N#Cc1ccccc1CN1CCCCCCNC(=O)CC1 | inconclusive: 31.6 µM [inhibitor, partial curve, poor fit] |  |
| COc1ccc(CN2CCCn3nc(C)c(-c4ccccc4C(C)C)c32)cc1O | inactive |  |
| COc1ccc(NC(=O)CSCc2ccc(F)cc2Cl)cc1 | inactive |  |
| O=C(NCc1ccccn1)C1CCCN(c2nc3ncccc3o2)C1 (stereo unspecified) | active: 35.5 µM |  |
| COc1ccc(-c2nc(CNC(=O)Nc3ccccc3)c(C)o2)cc1 | inconclusive: 22.4 µM [inhibitor, single point] |  |
| COc1cc(F)cc(-c2cccc(CCOc3cnc4c(ccn4CC(=O)O)c3)c2)c1 | active: 31.6 µM |  |
| COc1cccc(Cn2c(CNS(=O)(=O)c3ccc(C(C)(C)C)cc3)nc3cccnc32)c1 | inconclusive: 15.8 µM [inhibitor, partial curve, poor fit] |  |
| CNC(=O)N1CCc2c(sc3ncnc(N(C)C)c23)C1 | inconclusive: 35.5 µM [inhibitor, partial curve, poor fit] |  |
| O=C(CSc1ncc(C(F)(F)F)cc1Cl)N1CCc2ccccc21 | inactive |  |
| CN(CCNC(=O)c1cn2ccnc(-c3ccccc3)c2n1)C1CCCCC1 | inconclusive: 8.91 µM [inhibitor, partial curve] |  |
| N#Cc1ccc(CN2CCn3c(nn(-c4ccc(C(F)(F)F)cc4)c3=O)C2)cc1 | inconclusive: 31.6 µM [inhibitor, partial curve, poor fit] |  |
| Cc1ccc2c(n1)N(C)[C@H](CO)CCN(Cc1ccccc1F)C2 | inconclusive: 35.5 µM [inhibitor, partial curve, poor fit] |  |
| COC(=O)c1ccc(-c2nc3cc(NC(C)=O)ccc3o2)cc1 | inconclusive: 1.12 µM [inhibitor, partial curve, poor fit] |  |
| CCOc1ccc(CCNC(=O)c2sc3ncccc3c2-n2cccc2)cc1OCC |  | inconclusive: -32.6% [inhibitor] |
| CCN1CCCC12Cc1ccccc1CN(C(=O)c1ccccc1)C2 (stereo unspecified) | inconclusive: 70.8 µM [inhibitor, partial curve, poor fit] |  |
| C/C(=N/NC(N)=S)c1ccc([N+](=O)[O-])cc1 | inconclusive: 31.6 µM [inhibitor, partial curve, poor fit] |  |

| Compound | Potency | activity change, negative = inhibition |
| --- | --- | --- |
| COc1ccc(OC)c(NC(=O)c2cc(S(=O)(=O)NCCc3ccc(Cl)cc3)ccc2F)c1 | inconclusive: 28.2 µM [inhibitor, partial curve, poor fit] |  |
| COc1ccc(OC)c(NC(=O)Cc2c(C)c3ccc(O)c(C)c3oc2=O)c1 | inconclusive: 39.8 µM [inhibitor, partial curve, poor fit] |  |
| CC(=O)c1ccc(NC(=O)C2(c3ccc(C)cc3)CCCC2)cc1 | inactive |  |
| CC(=O)N1CCC(N2CCC(N3C(=O)C4(CCCCC4)C3c3ccncc3)CC2)CC1 (stereo unspecified) | inconclusive: 35.5 µM [inhibitor, partial curve, poor fit] |  |
| Cc1cccc(S(=O)(=O)Nc2nc3ccccc3nc2NCc2ccccc2Cl)c1 | inactive |  |
| COc1ccc(N(CC(=O)Nc2ccc(F)c(F)c2)S(=O)(=O)c2c(C)nn(C)c2C)cc1 | inactive |  |
| CSc1nc2nc3c(cc2c(=O)n1-c1cccc(C)c1)COC(C)(C)C3 | inconclusive: 28.2 µM [inhibitor, partial curve, poor fit] |  |
| COc1ccc(NC(=O)c2cc3n(n2)CC(c2ccc4c(c2)OCO4)OC3)cc1OC (stereo unspecified) | inactive |  |
| CCCCCSc1ncnc2c1sc1nc(N3CCOCC3)c3c(c12)CCCC3 | inconclusive: 31.6 µM [inhibitor, single point] |  |
| COc1ccc2[nH]c3c(c2c1)CCNC31CCN(C(=O)c2ccoc2)CC1 | inconclusive: 20 µM [inhibitor, partial curve, poor fit] |  |
| COc1ccc(-c2nnc(SCC(=O)NC3CCCC3)nc2-c2ccc(OC)c(OC)c2)cc1OC | inconclusive: 39.8 µM [inhibitor, single point] |  |
| CCNC(=O)c1c(C)oc2c1CN(C(=O)CC)CC2 | inconclusive: 35.5 µM [inhibitor, partial curve, poor fit] |  |
| CC(=O)Oc1c(C(C)C)cc(N(C(C)=O)c2ccccc2)cc1C(C)C | inconclusive: 12.6 µM [inhibitor, partial curve, poor fit] |  |
| COc1cccc(OC)c1C(=O)Nc1cccc(-c2cn3ccsc3n2)c1 | inactive |  |
| Cc1cccc(CS(=O)(=O)Cc2ccc(C(=O)NCCc3ccccc3)o2)c1 | inconclusive: 31.6 µM [inhibitor, partial curve, poor fit] |  |
| Cc1noc(C)c1CC(=O)N1CCCC(Cc2noc(-c3cccnc3)n2)C1 (stereo unspecified) | inactive |  |
| COc1ccc(CCNc2nc(-c3ccc(OC)c(OC)c3)cc(C(F)(F)F)n2)cc1OC | inconclusive: 39.8 µM [inhibitor, single point] |  |
| Cc1ccc(-c2cn(-c3cccc(Cl)c3)c(S(=O)(=O)CC(=O)Nc3cccc(C)c3)n2)cc1 | inconclusive: 28.2 µM [inhibitor, partial curve, poor fit] |  |
| Cc1cc(C)c2oc(C(=O)N3CCN(C)CC3)cc(=O)c2c1 | inactive |  |
| O=C1CCCC2=C1C(c1ccc(Cl)cc1)n1nc(-c3cccnc3)nc1N2 (stereo unspecified) | inactive |  |
| CC(C)(C)CN1CCC2(CC1)COc1ccccc1[S+](=O)([O-])N2 | inconclusive: 112 µM [inhibitor, single point] |  |
| COCC(=O)N[C@H]1C[C@H]2C(=O)NC[C@@H](CCC(=O)N3CCc4ccccc43)N2C1 | inconclusive: 35.5 µM [inhibitor, single point] |  |

| Compound | Potency | activity change, negative = inhibition |
| --- | --- | --- |
| CCN1CCC(CCNC(=O)CCC[C@H]2NC[C@@H]3CC2CN(Cc2ccccc2)C3)CC1 | inconclusive: 15.8 µM [inhibitor, partial curve, poor fit] |  |
| Cc1ccccc1C(=O)NCc1ccnc2[nH]ccc12 | inconclusive: 35.5 µM [inhibitor, single point] |  |
| COC(=O)C1=CN(Cc2ccc(F)cc2)C=C(C(=O)OC)C1c1ccccc1OCc1ccccc1 | inconclusive: 15.8 µM [inhibitor, partial curve, poor fit] |  |
| CC(C)(C)OC(=O)C(C#N)c1cnccn1 (stereo unspecified) | inconclusive: 12.6 µM [inhibitor, partial curve, poor fit] |  |
| CO[C@H]1C(=O)N(C2CCN(C(=O)c3cccc4[nH]ccc34)CC2)[C@H]1c1ccncc1 | active: 25.1 µM |  |
| Cc1nnc([C@H]2CCN(Cc3ccc(F)cc3)C2)o1 | inactive |  |
| CN(Cc1ccc(OC(F)(F)F)cc1)C(=O)C1(c2ccc(Cl)cc2)CCOCC1 | inconclusive: 39.8 µM [inhibitor, partial curve] |  |
| CCC(CC)N1C[C@@H](CO)[C@H](c2nc(CCOC)no2)C1 | inconclusive: 12.6 µM [inhibitor, partial curve] |  |
| CCCNC(=O)c1ccc2c(c1)sc1nc(-c3ccc(C)cc3)cn12 | inconclusive: 31.6 µM [inhibitor, partial curve, poor fit] |  |
| COc1cc(C)cc2oc(=O)c(CC(=O)NCCc3ccccc3)c(C)c12 | inconclusive: 10 µM [inhibitor, partial curve, poor fit] |  |
| COC(=O)[C@@H]1Cc2ncn(Cc3ccc(Cl)cc3)c2CN1C(=O)c1ccc(C#N)cc1 | inconclusive: 31.6 µM [inhibitor, single point] |  |
| CCCCCCCCNS(=O)(=O)CC1NCc2cc(F)ccc21 (stereo unspecified) | inconclusive: 15.8 µM [inhibitor, partial curve, poor fit] |  |
| O=C(O)c1ccccc1-n1cccc1 | inactive |  |
| C[C@@H](C(=O)N1CCN(c2cccc(Cl)c2)CC1)n1cnc2ccccc2c1=O | inactive |  |
| Cn1c(=O)c2c(ncn2CC(=O)NCCc2ccc(F)cc2)n(C)c1=O | inactive |  |
| CCOc1ccc(CN2CC[C@@](C)(O)[C@H](N3CCCC3)C2)cc1 | inconclusive: 14.1 µM [inhibitor, partial curve] |  |
| CCNC(=O)[C@@H]1CCCN1[C@@H](C(=O)NC)c1ccc(OC)cc1 | inactive |  |
| COc1ccc(OC)c(CNC(=O)c2nn(C)c3c2CSc2ccccc2-3)c1 | inconclusive: 28.2 µM [inhibitor, partial curve, poor fit] |  |
| CCOCCNc1ncnc2c1CN(C1CCNCC1)C(=O)CN2C | inconclusive: 50.1 µM [inhibitor, partial curve] |  |
| Fc1cccc(Cl)c1Cn1c(-c2cccs2)nc2ccccc21 | inconclusive: 31.6 µM [inhibitor, partial curve, poor fit] |  |
| O=C(NCc1ccc(F)cc1)c1ccc2nc(N3CCCCC3)sc2c1 | inconclusive: 8.91 µM [inhibitor, partial curve, poor fit] |  |
| COc1cc(OC)c(NC(=O)C(=O)CC(=O)c2ccc(C)cc2C)cc1Cl | inconclusive: 14.1 µM [inhibitor, partial curve, poor fit] |  |

Reference: PubChem BioAssay AID1347165 (National Center for Advancing Translational Sciences (NCATS), 2019)
